# Measurements as given in PMC5892938.
# The other results are listed elsewhere or left out. At the low end of the ranking the order means little.
# Target: GST-SBP-SLBP (stem-loop binding protein) (UniProt Q14493)
# Experiment: targeted RNA Bind-n-Seq;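 also: DESeq read counts versus GST-SBP nonspecific binding control pulldown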
# Details: RBNS binding buffer: 25 mM Tris pH 7.5, 150 mM KCl, 3 mM MgCl2, 0.1% Tween, 0.5 mg/mL BSA, 1 mM DTT; 27 nM protein, 750 pM RNA pool; temperature not stated; high values mean tight binding
row,Sequence,binding signal (log2 fold change)
1,GGUCACGUCUCAAUCAACUCAACUCCAGGAGUUUCCUCCUGUUAUCUCAACAGCUCGCAGUCAAG,-0.0554
2,GGUCACGUCUCAAUCAACUCUUCCCCAGGAGUUUCCUCCUGUAUACUCAACAGCUCGCAGUCAAG,0.19
3,GGUCACGUCUCAAUCAACUCUACUUCAGGAGUUUACUCCUGCUUUUUCAACAGCUCGCAGUCAAG,-0.21
4,GGUCACGUCUCAAUCAACUCAUUAGAGGGGGGGAAAACCCCUUUACCCUCAUCAUCAACAGCUCGCAGUCAAG,0.333
5,GGUCACGUCUCAAUCAACUCUUACGAGGGGGGGAAAACCCCUUUACCCUCUCCAUCAACAGCUCGCAGUCAAG,0.136
6,GGUCACGUCUCAAUCAACUCUUUCUCCAGGGAAAUCCCUGGUAUUCUCAACAGCUCGCAGUCAAG,0.148
7,GGUCACGUCUCAAUCAACUCUUUAGAGGGGGGGAAAACCCCUUUACCCUCACUUUCAACAGCUCGCAGUCAAG,-0.553
8,GGUCACGUCUCAAUCAACUCAAGUCCCAGGGAAAGCCCUGGUUUAUUCAACAGCUCGCAGUCAAG,-0.113
9,GGUCACGUCUCAAUCAACUCAAUAGAGGGGGGGAAAACCCCUUUGCCCUCGAAAUCAACAGCUCGCAGUCAAG,0.399
10,GGUCACGUCUCAAUCAACUCUUUUCCAGGAGUUUCCUCCUGCAUUCUCAACAGCUCGCAGUCAAG,0.153
11,GGUCACGUCUCAAUCAACUCCUUAGAGGGGGGGAAAACCCCUUUACCCUCACUAUCAACAGCUCGCAGUCAAG,0.225
12,GGUCACGUCUCAAUCAACUCUUUUCCAGGAGUUUUCUCCUGCUAUGUCAACAGCUCGCAGUCAAG,0.163
13,GGUCACGUCUCAAUCAACUCAUCGUCCAGGGAAACCCCUGGUAUAUUCAACAGCUCGCAGUCAAG,-0.238
14,GGUCACGUCUCAAUCAACUCUUCUCCAGGAGUUUACUCCUGUAAUCUCAACAGCUCGCAGUCAAG,0.129
15,GGUCACGUCUCAAUCAACUCAUCCCCCAGGGAAAUCCCUGGUUAUUUCAACAGCUCGCAGUCAAG,-0.0122
16,GGUCACGUCUCAAUCAACUCUACGCCAGGAGUUUCCUCCUGUAUAUUCAACAGCUCGCAGUCAAG,0.163
17,GGUCACGUCUCAAUCAACUCAAUCCCAGGAGUUUUCUCCUGCAUAUUCAACAGCUCGCAGUCAAG,0.294
18,GGUCACGUCUCAAUCAACUCUUCUUCAGGAGUUUACUCCUGCAAACUCAACAGCUCGCAGUCAAG,0.129
19,GGUCACGUCUCAAUCAACUCAUCGUCCAGGGAAAGCCCUGGUAUUUUCAACAGCUCGCAGUCAAG,0.0993
20,GGUCACGUCUCAAUCAACUCUUCUCCAGGAGUUUACUCCUGCAUUUUCAACAGCUCGCAGUCAAG,0.0632
21,GGUCACGUCUCAAUCAACUCUCUAGAGGGGGGGAAAACCCCUUUGCCCUCAUAAUCAACAGCUCGCAGUCAAG,0.0506
22,GGUCACGUCUCAAUCAACUCUACUUCAGGAGUUUCCUCCUGUAUUUUCAACAGCUCGCAGUCAAG,-0.132
23,GGUCACGUCUCAAUCAACUCUACUUCAGGAGUUUACUCCUGUAUACUCAACAGCUCGCAGUCAAG,0.0242
24,GGUCACGUCUCAAUCAACUCAUUUCCAGGAGUUUACUCCUGCAUUUUCAACAGCUCGCAGUCAAG,-0.0545
25,GGUCACGUCUCAAUCAACUCUUUCGAGGGGGGGAAAACCCCUUUACCCUCUCAUUCAACAGCUCGCAGUCAAG,-0.0772

row,Sequence,binding signal (log2 fold change)
1,GGUCACGUCUCAAUCAACUCUUCUUCCAGGGAAAUCCCUGGCAAAUUCAACAGCUCGCAGUCAAG,0.0914
2,GGUCACGUCUCAAUCAACUCAACUUCAGGAGUUUACUCCUGCUUUUUCAACAGCUCGCAGUCAAG,-0.195
3,GGUCACGUCUCAAUCAACUCAUUCGAGGGGGGGAAAACCCCUUUACCCUCUUUAUCAACAGCUCGCAGUCAAG,-0.487
4,GGUCACGUCUCAAUCAACUCAUUAGAGGGGGGGAAAACCCCUUUACCCUCACUAUCAACAGCUCGCAGUCAAG,0.122
5,GGUCACGUCUCAAUCAACUCAAUUUCAGGAGUUUACUCCUGUUAACUCAACAGCUCGCAGUCAAG,0.158
6,GGUCACGUCUCAAUCAACUCAUUCUCCAGGGAAACCCCUGGCUAUCUCAACAGCUCGCAGUCAAG,0.176
7,GGUCACGUCUCAAUCAACUCAUCCUCAGGAGUUUUCUCCUGCUAAGUCAACAGCUCGCAGUCAAG,0.0588
8,GGUCACGUCUCAAUCAACUCUUCGUCCAGGGAAAACCCUGGCUUAUUCAACAGCUCGCAGUCAAG,0.00619
9,GGUCACGUCUCAAUCAACUCGUUUUCAGGAGUUUACUCCUGCUUUUUCAACAGCUCGCAGUCAAG,-0.0659
10,GGUCACGUCUCAAUCAACUCCUUAGAGGGGGGGAAAACCCCUUUACCCUCACCGUCAACAGCUCGCAGUCAAG,-0.0529
11,GGUCACGUCUCAAUCAACUCAUCUUCAGGAGUUUACUCCUGUUAAUUCAACAGCUCGCAGUCAAG,-0.00644
12,GGUCACGUCUCAAUCAACUCUUUAGAGGGGGGGAAAACCCCUUUGCCCUCGUUUUCAACAGCUCGCAGUCAAG,0.083
13,GGUCACGUCUCAAUCAACUCUUCAGAGGGGGGGAAAACCCCUUUACCCUCAUCCUCAACAGCUCGCAGUCAAG,-0.175
14,GGUCACGUCUCAAUCAACUCAUCCUCCAGGGAAAACCCUGGCAUACUCAACAGCUCGCAGUCAAG,-0.167
15,GGUCACGUCUCAAUCAACUCUAUCGCAGGAGUUUUCUCCUGGUAACUCAACAGCUCGCAGUCAAG,-0.0754
16,GGUCACGUCUCAAUCAACUCAUUCUCAGGAGUUUUCUCCUGCUUACUCAACAGCUCGCAGUCAAG,-0.0853
17,GGUCACGUCUCAAUCAACUCAUCUUCCAGGGAAAUCCCUGGUUAACUCAACAGCUCGCAGUCAAG,-0.114
18,GGUCACGUCUCAAUCAACUCAAUUUCAGGAGUUUACUCCUGUAUAGUCAACAGCUCGCAGUCAAG,0.0899
19,GGUCACGUCUCAAUCAACUCUUACGAGGGGGGGAAAACCCCUUUACCCUCACUCUCAACAGCUCGCAGUCAAG,0.113
20,GGUCACGUCUCAAUCAACUCAUCUUCCAGGGAAAUCCCUGGCUUUUUCAACAGCUCGCAGUCAAG,-0.144
21,GGUCACGUCUCAAUCAACUCAAUUCCCAGGGAAAGCCCUGGCAUUCUCAACAGCUCGCAGUCAAG,0.08
22,GGUCACGUCUCAAUCAACUCCUACGAGGGGGGGAAAACCCCUUUACCCUCAAUAUCAACAGCUCGCAGUCAAG,0.24
23,GGUCACGUCUCAAUCAACUCAUUCCCAGGAGUUUUCUCCUGCAUUUUCAACAGCUCGCAGUCAAG,-0.261
24,GGUCACGUCUCAAUCAACUCUCUCGAGGGGGGGAAAACCCCUUUACCCUCAAUCUCAACAGCUCGCAGUCAAG,-0.295
25,GGUCACGUCUCAAUCAACUCAUCUUCCAGGGAAAUCCCUGGUUAUCUCAACAGCUCGCAGUCAAG,0.0117

row,Sequence,binding signal (log2 fold change)
1,GGUCACGUCUCAAUCAACUCAAUUCCCAGGGAAACCCCUGGUUUUCUCAACAGCUCGCAGUCAAG,-0.137
2,GGUCACGUCUCAAUCAACUCUACUCCCAGGGAAAACCCUGGCAAUCUCAACAGCUCGCAGUCAAG,0.0103
3,GGUCACGUCUCAAUCAACUCUUCUUCCAGGGAAACCCCUGGCAUUCUCAACAGCUCGCAGUCAAG,-0.0553
4,GGUCACGUCUCAAUCAACUCCAUCGAGGGGGGGAAAACCCCUUUACCCUCCAAUUCAACAGCUCGCAGUCAAG,0.49
5,GGUCACGUCUCAAUCAACUCAACUUCCAGGGAAACCCCUGGCGUAUUCAACAGCUCGCAGUCAAG,0.0823
6,GGUCACGUCUCAAUCAACUCAUCCCCAGGAGUUUUCUCCUGCUUUCUCAACAGCUCGCAGUCAAG,-0.0579
7,GGUCACGUCUCAAUCAACUCAUACGAGGGGGGGAAAACCCCUUUGCCCUCAUCUUCAACAGCUCGCAGUCAAG,-0.363
8,GGUCACGUCUCAAUCAACUCUUUCCCCAGGGAAACCCCUGGCUAUCUCAACAGCUCGCAGUCAAG,0.104
9,GGUCACGUCUCAAUCAACUCCCUGGAGGGGGGGAAAACCCCUUUACCCUCAUCAUCAACAGCUCGCAGUCAAG,-0.375
10,GGUCACGUCUCAAUCAACUCAAUCUCCAGGGAAAUCCCUGGCAAAUUCAACAGCUCGCAGUCAAG,0.278
11,GGUCACGUCUCAAUCAACUCUAUUCCAGGAGUUUUCUCCUGUUAAUUCAACAGCUCGCAGUCAAG,-0.0398
12,GGUCACGUCUCAAUCAACUCUUCAGAGGGGGGGAAAACCCCUUUACCCUCACCGUCAACAGCUCGCAGUCAAG,-0.0645
13,GGUCACGUCUCAAUCAACUCAACUUCAGGAGUUUGCUCCUGUAUUCUCAACAGCUCGCAGUCAAG,-0.0213
14,GGUCACGUCUCAAUCAACUCUACUCCCAGGGAAAUCCCUGGCAAUUUCAACAGCUCGCAGUCAAG,0.085
15,GGUCACGUCUCAAUCAACUCAUCGUCAGGAGUUUACUCCUGCUAAUUCAACAGCUCGCAGUCAAG,-0.124
16,GGUCACGUCUCAAUCAACUCAUCCCCCAGGGAAAUCCCUGGUUUAUUCAACAGCUCGCAGUCAAG,0.0964
17,GGUCACGUCUCAAUCAACUCAUUCUCAGGAGUUUCCUCCUGCAAUUUCAACAGCUCGCAGUCAAG,-0.0851
18,GGUCACGUCUCAAUCAACUCCUAAGAGGGGGGGAAAACCCCUUUACCCUCAUCAUCAACAGCUCGCAGUCAAG,0.0605
19,GGUCACGUCUCAAUCAACUCUAUCCCAGGAGUUUCCUCCUGCUAAUUCAACAGCUCGCAGUCAAG,0.0876
20,GGUCACGUCUCAAUCAACUCUAUCUCAGGAGUUUUCUCCUGCAAAUUCAACAGCUCGCAGUCAAG,0.017
21,GGUCACGUCUCAAUCAACUCUCAAGAGGGGGGGAAAACCCCUUUGCCCUCCAAAUCAACAGCUCGCAGUCAAG,0.327
22,GGUCACGUCUCAAUCAACUCAUCAGAGGGGGGGAAAACCCCUUUACCCUCAAUAUCAACAGCUCGCAGUCAAG,-0.0696
23,GGUCACGUCUCAAUCAACUCAUCUCCCAGGGAAAUCCCUGGCAUAUUCAACAGCUCGCAGUCAAG,-0.114
